The experiment deals with T1, Rubicon RH domain (Rubicon homology domain, residues 699–949) (human, UniProt Q92622 699-949).
T1 sequence (looked up): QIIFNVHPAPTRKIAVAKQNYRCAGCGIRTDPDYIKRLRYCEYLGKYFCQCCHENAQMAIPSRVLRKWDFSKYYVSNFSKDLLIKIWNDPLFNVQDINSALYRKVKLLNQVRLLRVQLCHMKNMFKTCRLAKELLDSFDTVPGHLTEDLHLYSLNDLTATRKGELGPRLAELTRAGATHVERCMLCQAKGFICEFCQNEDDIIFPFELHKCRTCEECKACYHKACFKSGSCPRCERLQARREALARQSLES
The experiment can be described thus: SEC.

B1: Rab7–GTP (GTP-locked Q67L mutant of human Rab7, […]) (domain or fragment)
chain: not shown
Regarding B1, the binding result is “binds”.
